# Test results from PubChem BioAssay AID686971 (National Center for Advancing Translational Sciences (NCATS), 2013).
# Out of some 360,000 compounds screened, about 7,500 (2.1%) were called active. Inconclusive results, whose numbers are uncertain, are shown with a selection of clear calls. Calls follow the shape of the dose curve; as a rule, active = well fitted cell-killing curve with a large enough effect; inconclusive = small, poorly fitted or top-dose-only effect, or effect the other way, or another doubt; inactive = no such curve, though single readings can be large or run the other way. Potencies of inconclusive entries are left out as doubtful fits.
# Assay: qHTS for induction of synthetic lethality in tumor cells producing 2HG: qHTS for the HT-1080-IDH1KD cell line
# Settings: HT-1080 IDH1 knockdown viability, ATP luminescence, 48 h; series mostly up to 46.1 µM
# In short: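 Viability of IDH1-knockdown HT-1080 fibrosarcoma cells was assessed by CellTiter-Glo after 48 h at 37 °C with titrated compound; concentration-effect curves were classified by fit quality and response size.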
# Potency is read from the fitted curve at half-maximal effect; tags tell the direction and shape of the fitted curve.
row,Compound,Potency
1,CCN(CC)CCn1c(=N)n(CC(O)COc2ccccc2)c2ccccc21 (stereo unspecified),"inconclusive [cytotoxic, partial curve]"
2,Cc1cccc2c(N=O)c(O)[nH]c12,inactive
3,C[C@@]12C(=O)Nc3cc(F)ccc3C(=O)N1[C@H]1c3cc(Br)ccc3OC[C@@H]1[C@@H]2c1ccccc1,"inconclusive [cytotoxic, single point]"
4,CN1CCN(CC/C=C2/c3ccccc3Sc3ccc(S(=O)(=O)N(C)C)cc32)CC1,"inconclusive [cytotoxic, single point]"
5,O=C(CCCN1CCc2[nH]c3ccc(F)cc3c2C1)c1ccc(F)cc1,active: 20.6 µM
6,Cc1nc(-c2ccccc2)c(-c2ccccc2)[nH]1,"inconclusive [cytotoxic, single point]"
7,C=CCOc1ccc(Cl)cc1CNCCCN1CCOCC1,"inconclusive [cytotoxic, full curve, poor fit]"
8,O=C(NC1CCCCCC1)c1c(O)nc2sccn2c1=O,"inconclusive [cytotoxic, partial curve]"
9,Cc1ccc(-c2ocnc2C(=O)Nc2ccccc2NC(=O)c2ccccn2)cc1,"inconclusive [cytotoxic, partial curve]"
10,c1ccc(Nc2ccccn2)cc1,inactive
11,Nc1cccc(C2=Nc3cccc4cccc(c34)N2)c1,inactive
12,Oc1ccccc1/C=N/Nc1ccccc1,active: 9.2 µM
13,CCOC(=O)c1c(NC(=O)CCl)sc(C(=O)N(CC)CC)c1C,"inconclusive [cytotoxic, single point]"
14,COCCNCCCOc1ccc(Cl)cc1Br,"inconclusive [cytotoxic, single point]"
15,O=C(NC(c1ccc(Cl)cc1)c1cnccn1)C1CCN(Cc2ccc(Cl)cc2)CC1 (stereo unspecified),"inconclusive [cytotoxic, single point]"
16,O=C(CCN1C(=O)/C(=C/c2ccccc2Cl)SC1=S)NCCc1ccc(O)cc1,inactive
17,COc1ccc([C@H]2C[C@H](O)[C@@H](n3cc(COC(=O)c4ccccc4)nn3)CN2CC2CCCCC2)cc1,"inconclusive [cytotoxic, single point]"
18,CCOC(=O)Nc1ccc(N2CCOCC2)c(S(=O)(=O)Nc2ccc(Cl)cc2)c1,"inconclusive [cytotoxic, partial curve]"
19,Cc1ccc(C(C)C)c(OCCNC(=S)Nc2cccc3ccccc23)c1,active: 7.94 µM
20,COc1ccc(C(CNC(=O)CNC(=O)c2ccccc2)N2CCCC2)cc1 (stereo unspecified),inactive
21,Oc1ccc(Cl)c(CN2CCN(c3ncc(Cc4ccccc4)cn3)CC2)c1,"inconclusive [cytotoxic, single point]"
22,CC1(C(=O)Nc2cccc(OC(F)(F)F)c2)Cc2c(-c3cccc(C(N)=O)c3)ccnc2O1 (stereo unspecified),"inconclusive [cytotoxic, partial curve]"
23,COc1ccc(-c2nc(N/N=C(\C)c3ccc(O)cc3)c3ccccc3n2)cc1,"inconclusive [cytotoxic, single point]"

row,Compound,Potency
1,Cc1nc(Nc2cccc(Cl)c2)c2oc3ccccc3c2n1,"inconclusive [cytotoxic, single point]"
2,CCc1ccccc1NC(=S)NCc1ccc2c(c1)OCO2,"inconclusive [cytotoxic, single point]"
3,O=C1OCC2=C1C(c1ccc(F)cc1)c1cc3c(cc1N2)OCO3 (stereo unspecified),active: 0.116 µM
4,Cc1cccc(C)c1N=Nc1c(C)cc(O)cc1C,active: 20.6 µM
5,CC(=O)c1ccc(N2CCN(C(=S)Nc3ccccc3F)CC2)cc1,inactive
6,CCCc1cc2c(=O)c(-c3ccc4c(c3)OCCO4)coc2cc1OS(C)(=O)=O,inactive
7,Cc1nn(Cc2ccc(C(=O)Nc3ccc(C(=O)OC(C)C)cc3)o2)c(C)c1Cl,"inconclusive [cytotoxic, single point]"
8,COc1cc(NC(=O)c2cc3c(CO)cnc(C)c3oc2=Nc2cccc(C(N)=O)c2)cc(OC)c1,inactive
9,COc1ccccc1N1CCN(C2=Nc3cccc4cccc2c34)CC1,active: 13 µM
10,N#Cc1c(NCCN)nc(-c2ccco2)c2c1CCCC2,"inconclusive [cytotoxic, single point]"
11,Cc1ccc(-c2cc(C(=O)N3CCN(c4ncccn4)CC3)c3ccccc3n2)cc1,"inconclusive [cytotoxic, single point]"
12,CC(N)c1csc(Nc2nncc3ccccc23)n1 (stereo unspecified),active: 18.4 µM
13,Cc1ccc(C(=O)N/C(=C\c2ccc(Cl)cc2)C(=O)NCC2CCCO2)cc1 (stereo unspecified),inactive
14,CCCCNc1c(-c2ccc(SC3CCCCC3)cc2)nc2ccccn12,"inconclusive [cytotoxic, single point]"
15,CC(=O)Nc1ccc(S(=O)(=O)N2CCN(c3cc4c(cc3[N+](=O)[O-])n(C)c(=O)n4C)CC2)cc1,"inconclusive [cytotoxic, single point]"
16,Clc1ncc(Cn2cccn2)s1,inactive
17,CCCCCCCCN1C(=O)[C@H](CC(=O)N2CCN(C(=O)c3ccco3)CC2)C[C@@]2(C(=O)OC)CCCCC=C12,"inconclusive [cytotoxic, single point]"
18,Cc1ccn2cc(-c3nonc3C)cc2c1,"inconclusive [cytotoxic, single point]"
19,CN(C)CCCN(C(=O)c1ccc(Cl)s1)c1nc2cc3c(cc2s1)OCO3,"inconclusive [cytotoxic, single point]"
20,C#CCN(C[C@@H]1[C@@H](OC(=O)NCc2ccco2)[C@@H](OC(=O)NCc2ccco2)Cn2c(=O)ccc(=O)n21)S(=O)(=O)c1ccc(C)cc1,"inconclusive [cytotoxic, single point]"
21,COc1ccc(OCc2cc(C(=O)N(C)Cc3cnccn3)no2)c(Cl)c1,inactive
22,COC(=O)c1[nH]c(C)c(/C(O)=C2\C(=O)C(=O)N(CCN3CCOCC3)C2c2ccc(C)o2)c1C (stereo unspecified),inactive
23,CCCCN(C(=O)c1cc(S(=O)(=O)N2CCCCCC2)ccc1OC)c1ccccc1,"inconclusive [cytotoxic, single point]"
